According to patent US7619005B2, “Methods for treating cognitive impairment in humans with Multiple Sclerosis” (Cognition Pharmaceuticals LLC, priority 2000, dated 2009):

Test system: rats
Assay: Inhibitory Avoidance task, normal rats

C[C@H](N)Cc1ccccc1 [(S)-(+)-amphetamine, reference compound]
retention of the IA task (about 2 mg/kg, thirty minutes prior to training (FIG. 1)): improved retention of the task
retention of the IA task (about 0.25, about 0.50 and about 1.0 mg/kg, thirty minutes prior to training (FIG. 1)): had no effect
retention of the IA task (second experiment, about 2.0 mg/kg (FIG. 2), unpaired t-test p<0.01): significantly improved retention of the task
